The supplement of paper PMC12645437, “Orthogonal IMiD-Degron Pairs Induce Selective Protein Degradation in Cells” (ACS Chemical Biology, 2025)
The list shows a part of the results.

B1: Q9UKT9 (peptide)
chain: FGCPICGATFTQKGNLLRHIKL
B2: Q9UKT9 (peptide)
chain: FICPICGHGFTQKGNLLRHIKL
B3: Q9UKT9 (peptide)
chain: FSCEQCGAQFTQKGNLLRHIKL
B4: Q9UKT9 (peptide)
chain: FKCDQCGATFTQKGNLLRHIKL
B5: Q9UKT9 (peptide)
chain: LHCPICGFACTQKGNLLRHIKL
B6: Q9UKT9 (peptide)
chain: FKCEICGHNFTQKGNLLRHIKL
B7: Q9UKT9 (peptide)
chain: FFCEQCGAHFTQKGNLLRHIKL
B8: Q9UKT9 (peptide)
chain: FMCEICGATFTQKGNLLRHIKL
B9: Q9UKT9 (peptide)
chain: FQCNQCGRKFTQKGNLLRHIKL
B10: Q9UKT9 (peptide)
chain: FCCDVCGANFTQKGNLLRHIKL
B11: Q9UKT9 (peptide)
chain: FLCNVCGARFTQKGNLLRHIKL
B12: Q9UKT9 (peptide)
chain: FLCPICGAIFTQKGNLLRHIKL
B13: Q9UKT9 (peptide)
chain: FHCNICGAAFTQKGNLLRHIKL
B14: Q9UKT9 (peptide)
chain: FCCDQCGALFTQKGNLLRHIKL
B15: Q9UKT9 (peptide)
chain: FKCPICGHMFTQKGNLLRHIKL
B16: Q9UKT9 (peptide)
chain: FKCEICGRGFTQKGNLLRHIKL
B17: Q9UKT9 (peptide)
chain: FYCPICGREFTQKGNLLRHIKL
B18: Q9UKT9 (peptide)
chain: FTCSVCGHFFTQKGNLLRHIKL
B19: Q9UKT9 (peptide)
chain: FLCEICGHPFTQKGNLLRHIKL
B20: Q9UKT9 (peptide)
chain: FFCDQCGAEFTQKGNLLRHIKL
B21: Q9UKT9 (peptide)
chain: FWCPQCGADFTQKGNLLRHIKL
B22: Q9UKT9 (peptide)
chain: FSCNQCGRFFTQKGNLLRHIKL
B23: Q9UKT9 (peptide)
chain: FRCNQCGANFTQKGNLLRHIKL
B24: Q9UKT9 (peptide)
chain: LWCNQCGFTCTQKGNLLRHIKL
B25: Q9UKT9 (peptide)
chain: FFCNQCGAGFTQKGNLLRHIKL
B26: Q9UKT9 (peptide)
chain: FWCPICGRSFTQKGNLLRHIKL
B27: Q9UKT9 (peptide)
chain: FSCSVCGHRFTQKGNLLRHIKL
B28: Q9UKT9 (peptide)
chain: FSCEICGHQFTQKGNLLRHIKL
B29: Q9UKT9 (peptide)
chain: FWCPICGRTFTQKGNLLRHIKL
B30: Q9UKT9 (peptide)
chain: FLCPICGRGFTQKGNLLRHIKL
B31: Q9UKT9 (peptide)
chain: FCCSVCGHMFTQKGNLLRHIKL
B32: Q9UKT9 (peptide)
chain: FVCPICGADFTQKGNLLRHIKL

Target: no compound (DMSO)
Assay: log2 fold change of degron read counts, EGFP-low vs EGFP+ sorted cells; higher = lower degron-EGFP level without compound (poor expression or instability)
Details: compound: DMSO control; 18 h
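Also: jurkat cells carrying a lentiviral library of mutant zinc finger degrons fused to EGFP plus mCherry, mCherry+ cells FACS sorted, degron abundance counted by next-generation sequencing.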

How did the “log2 fold change of degron read counts” value turn out when B1 was run?
Its value is -0.404.

How did the “log2 fold change of degron read counts” value turn out when B2 was run?
The value was 0.233.

With B3 as the sequence, how does the “log2 fold change of degron read counts” value read?
Its value is -3.15.

For B4, which “log2 fold change of degron read counts” value is on record?
The value was -1.63.

B5 was tested. Which “log2 fold change of degron read counts” value did it give?
Its value is 0.531.

How did the “log2 fold change of degron read counts” value turn out when B6 was run?
Its value is -1.42.

Which “log2 fold change of degron read counts” value does the source give for B7 here?
The value was -1.33.

B8 was tested. Which “log2 fold change of degron read counts” value did it give?
The value was -1.81.

How did the “log2 fold change of degron read counts” value turn out when B9 was run?
The value was -3.07.

For B10, which “log2 fold change of degron read counts” value is on record?
The value was -1.74.

Which “log2 fold change of degron read counts” value does the source give for B11 here?
Its value is -0.907.

How did the “log2 fold change of degron read counts” value turn out when B12 was run?
Its value is 0.692.

How did the “log2 fold change of degron read counts” value turn out when B13 was run?
Its value is -0.93.

Which “log2 fold change of degron read counts” value does the source give for B14 here?
Its value is -1.68.

B15 was tested. Which “log2 fold change of degron read counts” value did it give?
The value was -0.875.

B16 was tested. Which “log2 fold change of degron read counts” value did it give?
The value was -1.24.

Which “log2 fold change of degron read counts” value does the source give for B17 here?
The value was -0.354.

For B18, which “log2 fold change of degron read counts” value is on record?
Its value is 0.406.

B19 was tested. Which “log2 fold change of degron read counts” value did it give?
The value was -0.603.

How did the “log2 fold change of degron read counts” value turn out when B20 was run?
Its value is -1.56.

With B21 as the sequence, how does the “log2 fold change of degron read counts” value read?
Its value is -0.309.

With B22 as the sequence, how does the “log2 fold change of degron read counts” value read?
Its value is 0.444.

How did the “log2 fold change of degron read counts” value turn out when B23 was run?
Its value is -0.525.

B24 was tested. Which “log2 fold change of degron read counts” value did it give?
Its value is 1.69.

For B25, which “log2 fold change of degron read counts” value is on record?
The value was -0.172.

How did the “log2 fold change of degron read counts” value turn out when B26 was run?
Its value is -0.117.

How did the “log2 fold change of degron read counts” value turn out when B27 was run?
Its value is 0.0181.

For B28, which “log2 fold change of degron read counts” value is on record?
The value was -2.78.

For B29, which “log2 fold change of degron read counts” value is on record?
Its value is 0.481.

Which “log2 fold change of degron read counts” value does the source give for B30 here?
The value was -0.421.

Which “log2 fold change of degron read counts” value does the source give for B31 here?
The value was 0.124.

How did the “log2 fold change of degron read counts” value turn out when B32 was run?
The value was -1.19.
